Data on 43 compounds can be found in ChEMBL document CHEMBL4888484, “Replenishing the malaria drug discovery pipeline: Screening and hit evaluation of the MMV Hit Generation Library 1 (HGL1) against asexual blood stage Plasmodium falciparum ,using a nano luciferase reporter read-out” (2022).

The campaign covered roughly 150,000 compounds. About 540 (0.36%) showed an effect of 50% or more. The list shows a part of the results.

The assay deals with Plasmodium falciparum. The assay is described as follows: Primary screen in NF54 nanoGlo assay, in single point, at 2uM, 72h; a lower Z score goes with more inhibition. Type of assay: functional, Erythrocyte. The settings on record: timepoint 72 hour.
The term % Inhibition denotes the relative decrease from the control value, in per cent. For the compound `CCCCN1CCOC[C@H]1c1nc(-c2ccc3c(c2)CCO3)no1`, the “% Inhibition” value turned out to be 3% and the Z score is -0.37.

On to `CC1CN(C(C(=O)N2CCCN(C(N)=O)CC2)C(C)C)CC(C)O1` (stereo unspecified), for which the “% Inhibition” value amounted to 6% and the Z score is -0.99.

Take `COC(=O)C1(NC(=O)OC(C)(C)C)CC(CN2CC[C@H](F)C2)C1` (stereo partly specified): the “% Inhibition” value is listed as -9% and the Z score is 1.38.

Regarding `NC(=O)C1CCN(C(=O)C2CC3CCC2C3)C1` (stereo unspecified), the “% Inhibition” value was -14% and the Z score is reported as 1.58.

Regarding `Cc1nc(C(=O)N2CCn3nc(CCC(=O)NC(C)C)cc3C2)cs1`, the “% Inhibition” value is listed as -17% and the Z score was 3.34.

As to `CCc1cc(CN(C)CCc2nccn2C)on1`, the “% Inhibition” value came out at 6% and the Z score is reported as -1.

Turning to `COC(=O)N[C@@H](C)c1nc(C)nn1-c1cccnc1`, the “% Inhibition” value is -11% and the Z score worked out at 1.25.

As to `COc1c(F)cccc1CN1CCC([C@H](C)N2CCCC2)CC1`, the “% Inhibition” value was -7% and the Z score is 0.88.

Regarding `Cc1cccc(N(CC(=O)Nc2ccccc2C(=O)NCc2ccco2)S(C)(=O)=O)c1`, the “% Inhibition” value was 5% and the Z score is given as -0.75.

Take `c1cc2oc(C3CCCCC3)nc2cc1Cc1ccc2oc(C3CCCCC3)nc2c1`: the “% Inhibition” value is listed as -5% and the Z score is listed as 0.55.

Consider `N[C@@H]1CCN(C(=O)CCc2nc3cc(Br)ccc3s2)C1`, for which the “% Inhibition” value is -7% and the Z score was determined as 1.07.

Turning to `c1ncn(C[C@H]2CCCN(Cc3ccc4c(c3)OCCO4)C2)n1`, the “% Inhibition” value is recorded as -5% and the Z score was determined as 0.73.

On to `CC(C)CNC(=O)C(=O)NCCc1ccc(F)cc1`, for which the “% Inhibition” value is recorded as -4% and the Z score is given as 0.54.

As for `Cc1cnn(C)c1NC(=O)c1cccc(CN2CC[C@@H]3CCCC[C@H]3C2)c1`, the “% Inhibition” value is on record as -7% and the Z score is recorded as 1.36.

On to `COc1cccc2cc(C(=O)NC3CCN(c4ncnc5c4CCCC5)CC3)oc12`, for which the “% Inhibition” value was -13% and the Z score was 1.62.

For the compound `NC(=O)N1CCC[C@H]1c1nc(-c2cccc(Br)c2)no1`, the “% Inhibition” value was found to be 10% and the Z score is listed as -1.27.

As to `COc1ccc(CN(Cc2ccc(C(O)(c3ccc(OC)cc3)c3ccc(OC)cc3)o2)C[C@H]2CCCO2)cc1`, the “% Inhibition” value is listed as -7% and the Z score is listed as 0.9.

For the compound `CO[C@H]1COC[C@@H]1n1cnc(-c2ccccc2)c1-c1ccc2occc2c1`, the “% Inhibition” value is recorded as 0% and the Z score is -0.02.

For the compound `C1CCN(CCCC2CCN(c3nnc(C4CC4)s3)CC2)C1`, the “% Inhibition” value is -9% and the Z score amounted to 0.92.

For `CC[C@H](C)NC(=O)C(=O)NCc1ccc(C)cc1`, the “% Inhibition” value is on record as -16% and the Z score amounted to 2.06.

Consider `C=CCn1c(C)c(CC(=O)N2CCOCC2)c(=O)n2nc(-c3ccc(C)cc3)nc12`, for which the “% Inhibition” value is on record as -13% and the Z score turned out to be 1.3.

With `CC[C@H](C)NS(=O)(=O)c1ccc(-c2[nH]nc(C)c2C)o1`, the “% Inhibition” value is on record as -10% and the Z score is on record as 1.53.

Consider `Cc1csc(NC(=O)NCCN2C(=O)CNC2=O)n1`, for which the “% Inhibition” value is listed as 2% and the Z score is -0.33.

With `CC(C)N(C(=O)CN1CC[C@H]1c1ccc(Cl)cc1)C(C)C`, the “% Inhibition” value is -4% and the Z score is reported as 0.72.

`CCOC(=O)c1ccc(NC(=O)CN2CCCn3nc(C)cc32)cc1`: the “% Inhibition” value is -8% and the Z score was 1.3.

As for `CCCn1c(C)cnc1C1CN(C(=O)c2ccoc2)C1`, the “% Inhibition” value is given as -8% and the Z score is 1.27.

With `O=C(Nc1ccc(F)cc1F)c1cccc(CN2[C@@H]3CC[C@H]2C[C@@H](O)C3)c1`, the “% Inhibition” value is -6% and the Z score stood at 1.05.

In the case of `O=C(CN1Cc2c(cnn2-c2ccccc2)C1=O)N1CC[C@H](CO)C1`, the “% Inhibition” value was -8% and the Z score turned out to be 0.91.

For `CCOc1cccc(CN2CCC(CC(=O)N3CCCC3)CC2)c1`, the “% Inhibition” value was 4% and the Z score is listed as -0.72.

For the compound `Cc1cc(C(=O)N2CCOC3CCCCC32)c2ccccc2n1` (stereo unspecified), the “% Inhibition” value is -11% and the Z score turned out to be 1.36.

With `CC[C@H](Nc1ccc2c(c1)OC1(CCCCC1)O2)C(=O)Nc1cc(C)on1`, the “% Inhibition” value was -16% and the Z score amounted to 2.07.

`O=C(CC1CCCCC1)Nc1nnc([C@H]2CC(=O)N(c3ccc(OC(F)(F)F)cc3)C2)o1`: the “% Inhibition” value is on record as -5% and the Z score was 0.75.

In the case of `Cc1cc(C(=O)Nc2cccc(N3CCCC3=O)c2)on1`, the “% Inhibition” value is reported as -5% and the Z score is 0.97.

In the case of `Cn1nc(-c2ccncc2)cc1CNC(=O)c1ccc(Cl)s1`, the “% Inhibition” value is -13% and the Z score turned out to be 2.11.

Turning to `CN[C@@H](C)c1nc(-c2cccc3c2ccn3C)n[nH]1`, the “% Inhibition” value was 1% and the Z score is reported as -0.11.

In the case of `Cc1nnc(NC(=O)N2CCN(c3ccc(-c4ccccc4)cc3)CC2)[nH]1`, the “% Inhibition” value is -7% and the Z score was found to be 0.94.

In the case of `CC(C(=O)NCC1CCCO1)N(C)C(C)c1ccccc1` (stereo unspecified), the “% Inhibition” value is recorded as -3% and the Z score is 0.35.

Take `CC(C)(O)Cn1nc(CC(N)=O)nc1C1CC=CC1`: the “% Inhibition” value is reported as -8% and the Z score was found to be 1.12.

Consider `O=S(=O)(Nc1ccc(F)cc1)c1cccnc1Nc1ccccc1`, for which the “% Inhibition” value is -3% and the Z score is 0.34.

On to `CO[C@@H]1C[C@@H](c2ncn[nH]2)N(CC(=O)N2CCCc3ccccc32)C1`, for which the “% Inhibition” value was 7% and the Z score is -0.95.

Regarding `COc1cccc(CN=C(N)N(C)C2CC2)c1OC1CCCC1`, the “% Inhibition” value was -3% and the Z score is on record as 0.5.

For the compound `CN(Cc1cccnc1)c1ncccc1F`, the “% Inhibition” value is listed as 3% and the Z score is -0.43.

`C[C@]1(O)CCN(c2cc(C(F)(F)F)ccn2)C[C@H]1O`: the “% Inhibition” value is recorded as -2% and the Z score amounted to 0.3.
